According to PubChem BioAssay AID1347055 (National Center for Advancing Translational Sciences (NCATS), 2019):
Out of some 54,000 compounds screened, about 120 (0.22%) were called active. Inconclusive results, whose numbers are uncertain, are shown with a selection of clear calls. Calls come from the whole dose curve; as a rule, active = well fitted inhibition curve with a large enough effect; inconclusive = small, poorly fitted or top-dose-only effect, or effect the other way; inactive = flat fitted curve, though single readings scatter. No potency is given beside an inconclusive call; the fits are too rough.

The compounds below were run against Fumarate hydratase, mitochondrial (Homo sapiens) (UniProt P07954) (assay: Identification of activators of human fumarate hydratase by quantitative high-throughput screening). Conditions: FH coupled MDH/diaphorase resazurin fluorescence, 15 min; activity change, negative = inhibition: at 79.9 µM (top of the series).
% is set by controls: 0 for no effect and ±100 for the full control effect; potency is the fitted concentration of half-maximal effect; tags give direction and shape of the fitted curve.
Note: the screen sought activators but most active calls are inhibition curves; nearly all actives have a fitted effect of over 45% in size.

Sequence of UniProt P07954 (P07954 whole entry, looked up): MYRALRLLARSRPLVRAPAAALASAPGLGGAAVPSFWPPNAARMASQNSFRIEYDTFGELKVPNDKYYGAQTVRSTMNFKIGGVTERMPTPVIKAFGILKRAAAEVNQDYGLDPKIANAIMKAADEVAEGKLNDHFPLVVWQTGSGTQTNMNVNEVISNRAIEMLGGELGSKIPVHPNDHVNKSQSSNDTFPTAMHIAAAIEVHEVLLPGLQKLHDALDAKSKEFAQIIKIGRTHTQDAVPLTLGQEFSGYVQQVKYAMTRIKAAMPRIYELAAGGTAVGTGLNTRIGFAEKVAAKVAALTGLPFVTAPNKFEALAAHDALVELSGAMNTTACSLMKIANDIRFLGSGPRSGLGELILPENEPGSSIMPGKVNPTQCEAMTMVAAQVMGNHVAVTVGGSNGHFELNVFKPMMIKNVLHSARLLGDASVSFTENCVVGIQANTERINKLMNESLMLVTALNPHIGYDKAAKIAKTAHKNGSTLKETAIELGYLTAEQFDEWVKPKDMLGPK

| SMILES | activity change, negative = inhibition | Potency |
| --- | --- | --- |
| COc1ccc(CNc2nc(-c3ccco3)nn2C(=O)c2ccccc2C)cc1 | inactive: -23.3% |  |
| CCCOCc1cc(CN2CCN(c3ccccc3OC)CC2)c(O)c2ncccc12 |  | inconclusive [activator, partial curve] |
| Cc1cccc(C)c1NC(=O)CN(C)S(=O)(=O)c1ccc2[nH]c3c(c2c1)CCCC3 | inactive: -18.3% |  |
| O=C(O[C@H]1[C@@H]2C=CO[C@@H](O[C@@H]3O[C@H](CO)[C@@H](O)[C@H](O)[C@H]3O)[C@@H]2[C@@]2(CO)O[C@@H]12)c1ccc(O)c(O)c1 | inactive: 0.813% [at 53.3 µM] |  |
| CC(C)COc1ccc(C(=O)N2CCC(c3nc4ccccc4s3)CC2)cc1 |  | inconclusive [inhibitor, partial curve] |
| CCOc1ccc(C(=O)Nc2ccc3nc4c(c(Nc5ccccc5OC)c3c2)CCCC4)cc1 |  | inconclusive [inhibitor, partial curve, poor fit] |
| CC(=O)c1cccc(Nc2nc(-c3ccccc3Cl)nc3ccccc23)c1 | inactive: -3.09% |  |
| Nc1ncc(S(=O)(=O)NCc2ccc(F)cc2)cn1 |  | inconclusive [inhibitor, single point] |
| CCc1ccc(NC(=O)CC2C(=O)N(c3ccc(Cl)cc3)C(=O)N2C2CCCC2)cc1 (centres undefined) |  | inconclusive [inhibitor, partial curve, poor fit] |
| CC(C)c1ccc(/C=C(\C#N)c2nc(-c3ccc(O)cc3)cs2)cc1 |  | inconclusive [inhibitor, single point] |
| CO[C@@H]1[C@@H](O[C@H]2O[C@@H](C)[C@H](O[C@@H]3C[C@](C)(O)[C@H](O)[C@@H](C)O3)[C@@H](N(C)C)[C@@H]2O)[C@@H](CC=O)C[C@@H](C)[C@@H](O[C@H]2CC[C@H](N(C)C)[C@H](C)O2)/C=C/C=C/C[C@@H](C)OC(=O)C[C@H]1O | inactive: 9.8% |  |
| COc1cccc(CNC(=O)CSc2n[nH]c(-c3ccccc3Cl)n2)c1 |  | inconclusive [inhibitor, partial curve] |
| C=CC(=O)Nc1cccc(Sc2nc(Nc3ccc(N4CCN(C)CC4)cc3)ncc2Cl)c1 |  | inactive |
| Cc1ccc(-n2nc3c(N4CCCC(C(=O)NCc5ccccc5C)C4)nnc(C)c3c2C)cc1 (centres undefined) |  | inconclusive [inhibitor, partial curve] |
| CCCOc1ccc(CC2C(=O)Nc3ccc(Br)cc32)cc1 (centres undefined) |  | inconclusive [inhibitor, single point] |
| O=c1c(-c2ccc(O)cc2)coc2cc(OC3O[C@H](CO)[C@H](O)[C@H](O)[C@H]3O)cc(O)c12 (some centres undefined) |  | inconclusive [inhibitor, single point] |
| COc1cc(OC)c(NC(=O)CCc2nc(C3=CCN(Cc4cccc(Cl)c4)CC3)no2)cc1Cl |  | inconclusive [activator, single point] |
| CCOC(=O)c1ccc(NC(=O)Nc2cc3c(cc2N2CCCCC2)n(CC)c(=O)n3CC)cc1 |  | inconclusive [inhibitor, partial curve] |
| COc1cc(Cl)c(NS(=O)(=O)c2cc3[nH]c(=O)c(=O)[nH]c3cc2C)c(OC)c1 |  | inconclusive [inhibitor, full curve] |
| c1ccc2c(c1)CCc1ccccc1N2 |  | inconclusive [inhibitor, partial curve, poor fit] |

| SMILES | activity change, negative = inhibition | Potency |
| --- | --- | --- |
| Cc1cc(C)c(NC(=O)c2sc3nc(C)cc(C)c3c2N)c(C)c1 | inactive: -0.878% |  |
| Cc1ccc2sc(N3CCN(C(=O)C4COc5ccccc5O4)CC3)nc2c1C (centres undefined) |  | inconclusive [inhibitor, partial curve, poor fit] |
| CCCc1nn2c(=O)cc(COC(=O)c3ccc(NC(=O)c4cccs4)cc3)nc2s1 |  | inconclusive [inhibitor, single point] |
| CCCCCCCCCCCCCCCC[N+](C)(C)Cc1ccccc1 | inactive: -12.7% [at 53.3 µM] |  |
| COc1cccc(/C=C/c2nc(C#N)c(N(C)Cc3ccccc3)o2)c1 | inactive: -14% |  |
| COc1cccc(-c2cc(C(F)(F)F)nc(NCc3ccc(F)cc3)n2)c1 |  | inconclusive [inhibitor, partial curve, poor fit] |
| CC(C)c1ccc(NS(=O)(=O)c2ccc3[nH]cc(C(=O)NC4CCCCC4)c(=O)c3c2)cc1 |  | inconclusive [inhibitor, partial curve] |
| COC(=O)c1ccc(NS(=O)(=O)c2ccc3[nH]c4c(c3c2)CCCCC4)cc1 |  | inconclusive [inhibitor, single point] |
| Cn1cc[nH]c1=S | inactive: -2.29% [at 53.3 µM] |  |
| Cc1ccc(CNC(=O)c2ccc3c(c2)NC(=O)C(CS(=O)(=O)Cc2cccc(F)c2)N3)cc1 (centres undefined) |  | inconclusive [inhibitor, partial curve, poor fit] |
| CCNC1(C(N)=O)CN(c2nc(C)nc3c(-c4ccc(Cl)cc4)c(-c4ccccc4Cl)nn23)C1 | inactive: -5.79% |  |
| O=C(Nc1nc2c(F)cccc2s1)c1ccc2c(c1)OCCO2 | inactive: -18% |  |
| Cc1ccc(S(=O)(=O)N(CC(O)Cn2c3ccccc3c3ccccc32)c2cccc(C(=O)NCCO)c2)cc1 (centres undefined) |  | inconclusive [inhibitor, single point] |
| CCOc1cc(CNc2ccc(O)cc2)cc(Cl)c1OCc1ccccc1 |  | inconclusive [inhibitor, partial curve] |
| Cn1nc(-c2ccccc2F)c2cc(C(=O)N3CCN(c4ccccc4F)CC3)sc21 |  | inconclusive [inhibitor, single point] |
| COC(=O)c1ccc2c(=O)n(CCCCCC(=O)N3CCN(c4cccc(C)c4C)CC3)c(=O)[nH]c2c1 | inconclusive: -37.9% [inhibitor] |  |
| CCOC(=O)c1cnc2ccc(OC)cc2c1Nc1cccc(C(C)=O)c1 |  | inconclusive [inhibitor, partial curve, poor fit] |
| O=C(CN1C(=O)C2(SCC(=O)N2c2ccc(F)c(F)c2)c2ccccc21)Nc1cccc(Cl)c1 (centres undefined) |  | inconclusive [inhibitor, partial curve, poor fit] |
| Cc1cc(F)ccc1S(=O)(=O)Nc1cc2c(C(=O)O)c(C)oc2c2ccccc12 |  | active: 15.8 µM |
